Test results: patent US20110212116A1, “IMMUNOGENIC PEPTIDES AND USES THEREOF” (Cancer Research Technology Limited, priority 2008, published 2011)

Columns and labels:
[1] = molecular target: HLA-A2 molecules on the surface of T2 cells (Homo sapiens, UniProt P04439, D140Y/D185E/D98H/E176V/E277Q/G131W/G231S/I119V/I121R/I166T/I218V/L300P/L318F/N151K/N90K/P208A/P217A/Q86G/Q94H/R138H/R169H/T345S); test: T2 assay: stabilisation of HLA-A2 on T2 cells by peptide (FACS); assay type: binding; settings: overnight incubation with peptide, anti-HLA-A2-FITC, mean fluorescence
[2] = molecular target: T1, HLA-A*0201 molecules on the surface of T2 cells (human); test: T2 cell HLA-A2 stabilisation, FACS
T1 construct: whole, on cells; Empty or weakly loaded class I molecule on T2 cells; also called HLA-A2; MHC class I

KIQEQLQMV [P1, wild type control nonamer located in the human CLOCK gene, reference compound]
Stabilisation of HLA-A2 molecules on the surface of T2 cells (binding to HLA-A2) [1]: showed binding

P14: modified PASD1 peptide, SEQ ID NO 21, derivative of wild type peptide P8 (RLWQELSDI; Synthetic sequence amino acid sequence p14)
Stabilisation of HLA-A2 molecules on the surface of T2 cells (binding to HLA-A2) [1]: greatest stabilisation

KIQEQLQMV [Peptide 1 (P1), wild type CLOCK peptide]
binding result [2]: binds
